Drawing on the supplement of paper PMC10670038, this text covers relative cell viability for 81 compounds.

Counter-ions that a name gives are not always drawn. ± gives the standard deviation of the averaged measurements. In all, about 2,000 compounds were measured (“relative cell viability vs DMSO, compound alone”: median about 1.1, lowest 2% from about 0.29 on). The list shows a part of the results.

The test system of the assay is TE10. Put plainly: relative cell viability vs DMSO, compound alone (fraction); TE10 is an esophageal squamous carcinoma line; higher = less cytotoxic. Conditions: 2 µM; 48 h. On the procedure: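 TE10 ESCC cells (1,000/well, 384-well plates) were treated with Selleck bioactive library compounds at 2 uM alone for 48 h. Viability was read by CellTiter-Glo and expressed relative to DMSO wells. Two technical replicates (A, B).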
Consider `O=C(c1cccc(Cl)c1F)N1CCN(Cc2cccc(Nc3nccs3)n2)CC1`, for which the relative cell viability stood at 0.949 ± 0.034.
The value for `CC(C)[C@H]1C(=O)N[C@@H](CCCNC(=N)N)C(=O)NCC(=O)N[C@@H](CC(=O)O)C(=O)N[C@H](Cc2ccccc2)C(=O)N1C` [Cilengitide] was 1.12 ± 0.071; that for `CC(C)(C)c1[nH]cnc1/C=c1\[nH]c(=O)/c(=C/c2ccccc2)[nH]c1=O` [Plinabulin (NPI-2358)] was 0.8774 ± 0.0029.
The value for `Cn1c(=O)cc(N2CCC[C@@H](N)C2)n(Cc2cc(F)ccc2C#N)c1=O` [Trelagliptin] was 1.1 ± 0.018; that for `N#Cc1ccc(-c2c(-c3ncn[nH]3)sc(N3CCOCC3)c2C#N)c(F)c1` was 0.652 ± 0.025.
The value for `COc1ccc(C(=O)CC2(O)C(=O)Nc3c(Cl)ccc(Cl)c32)cc1` (stereo unspecified) was 0.822 ± 0.059; that for `O=C(NC1CCN(CCCCC2(C(=O)NCC(F)(F)F)c3ccccc3-c3ccccc32)CC1)c1ccccc1-c1ccc(C(F)(F)F)cc1` [Lomitapide Mesylate] was 0.9169 ± 0.0071; that for `O=C(NC1CCN(CCCCC2(C(=O)NCC(F)(F)F)c3ccccc3-c3ccccc32)CC1)c1ccccc1-c1ccc(C(F)(F)F)cc1` [Lomitapide] was 1.09 ± 0.042.
`CC(C)(C)Cn1c(N)nc2ccc(-c3[nH]c(C(C)(C)C)nc3-c3ccc(F)cc3)nc21` yielded a relative cell viability of 1.18 ± 0.086.
The value for `CCCN[C@H]1CCc2nc(N)sc2C1` [Pramipexole dihydrochloride monohydrate] was 0.8668 ± 0.0029.
The value for `CCCN[C@H]1CCc2nc(N)sc2C1` [Pramipexole] was 1.11 ± 0.049.
`COc1cccc(-c2ccc(NC(=O)C3=C(C(=O)O)CCC3)c(F)c2)c1` [Vidofludimus] displayed a relative cell viability of 1.07 ± 0.11.
The compound `Clc1cccc(-c2nnnn2Cc2cccnc2)c1Cl` showed a relative cell viability of 1.12 ± 0.059.
The value for `C/C=C1/[C@H](O[C@@H]2O[C@H](CO)[C@@H](O)[C@H](O)[C@H]2O)OC=C(C(=O)OC)[C@H]1CC(=O)OCCc1ccc(O)c(O)c1` [Oleuropein] was 0.87 ± 0.04; that for `Cc1cc(=O)oc2cc(O)ccc12` [4-Methylumbelliferone (4-MU)] was 1.106 ± 0.0097; that for `O=C(Nc1ccc(OC(F)(F)F)cc1)c1sccc1NCc1ccnc2ccccc12` was 1.22 ± 0.039.
The value for `COc1cc(/C=C/C(=O)N2CCN(CC(=O)N3CCCC3)CC2)cc(OC)c1OC` [Cinepazide maleate] was 1.17 ± 0.029.
The compound `Nc1ncn([C@@H]2O[C@H](CO)[C@@H](O)[C@H]2O)c(=O)n1` [Azacitidine] gave a relative cell viability of 1.11 ± 0.068.
The value for `CC(COc1ccccc1)N(CCCl)Cc1ccccc1` (stereo unspecified) [Phenoxybenzamine HCl] was 1.01 ± 0.013; that for `CCCNC(C)C(=O)Nc1ccccc1C` (stereo unspecified) [Prilocaine] was 1.02 ± 0.11.
The value for `CC(=O)Nc1cccc2c1c(Sc1ccc(Cl)cc1)c(C)n2CC(=O)O` was 1.1 ± 0.036.
The value for `Cc1c(-c2ccnn2C)cc(C(=O)NCc2ccc(S(C)(=O)=O)cn2)c(=O)n1-c1cccc(C(F)(F)F)c1` [Alvelestat (AZD9668)] was 0.9353 ± 0.0011; that for `O=C(Nc1cccc2cccnc12)c1ccc(N2C(=O)C3C4C=CC(C4)C3C2=O)cc1` (stereo not drawn) [IWR-1-endo] was 1.09 ± 0.053; that for `CC1(C)CC(=O)c2c(C(F)(F)F)nn(-c3ccc(C(N)=O)c(N[C@H]4CC[C@H](O)CC4)c3)c2C1` was 0.547 ± 0.015.
In turn, `O=C(O)/C=C/c1ccc(O)c(O)c1` [Caffeic Acid] registered a relative cell viability of 1.105 ± 0.0066.
The value for `CCCCc1nc2cc(/C=C/C(=O)NO)ccc2n1CCN(CC)CC` [Pracinostat (SB939)] was 0.371 ± 0.022; that for `Oc1ccc2ccccc2c1SSc1c(O)ccc2ccccc12` was 1.06 ± 0.031; that for `COc1cc2nc(N(C)CCCNC(=O)C3CCCO3)nc(N)c2cc1OC` (stereo unspecified) [Alfuzosin HCl] was 1.26 ± 0.038.
The value for `N#CSc1cc(SC#N)c(N)nc1N` was 1.05 ± 0.034; that for `CCCCCOc1ccc(-c2cc(-c3ccc(C(=O)N[C@H]4C[C@@H](O)[C@@H](O)NC(=O)[C@@H]5[C@@H](O)[C@@H](C)CN5C(=O)[C@H]([C@H](O)CC(N)=O)NC(=O)[C@H]([C@H](O)[C@@H](O)c5ccc(O)c(OS(=O)(=O)O)c5)NC(=O)[C@@H]5C[C@@H](O)CN5C(=O)[C@H]([C@@H](C)O)NC4=O)cc3)no2)cc1` [Micafungin Sodium] was 1.02 ± 0.032; that for `CC(C)n1nc(-c2ccc3oc(N)nc3c2)c2c(N)ncnc21` was 0.371 ± 0.0077.
`O=C(O)c1cc(C(F)(F)F)ccc1N1CC[C@H](OCc2ccccn2)C1` had a relative cell viability of 1.03 ± 0.17.
The value for `CC(=O)Nc1nc2c(Oc3cc(-c4ccc(C(F)(F)F)cc4)ncn3)cccc2s1` was 1.07 ± 0.032; that for `N[C@@H](Cc1c[nH]c2ccc(O)cc12)C(=O)O` [5-hydroxytryptophan (5-HTP)] was 1.12 ± 0.021; that for `Cc1[nH]c2ccccc2c1C1=C(NCCc2ccc(F)cc2)C(=O)N(C)C1=O` was 1.19 ± 0.06.
Regarding `N=C(N)Nc1ccc(C(=O)Oc2ccc3cc(C(=N)N)ccc3c2)cc1` [Nafamostat Mesylate], the relative cell viability is 0.943 ± 0.15.
The value for `O=C(NO)c1cccc(C(=O)NCCc2ccccc2)c1` was 1.17 ± 0.047.
The value for `CCCSc1nc(N[C@@H]2C[C@H]2c2ccc(F)c(F)c2)c2nnn([C@@H]3C[C@H](OCCO)[C@@H](O)[C@H]3O)c2n1` [Ticagrelor] was 1.02 ± 0.059; that for `C=CC(=O)Nc1cccc(Nc2nc(Nc3ccc(Oc4ccnc(C(=O)NC)c4)cc3)ncc2F)c1` was 1.08 ± 0.05.
The value for `O=C(O)COCCN1CCN(C(c2ccccc2)c2ccc(Cl)cc2)CC1` (stereo unspecified) [Cetirizine DiHCl] was 1.18 ± 0.12; that for `Cc1cc(C)c(-c2csc(NC(=O)c3ccccc3)n2)c(C)c1` was 1.13 ± 0.029.
Consider `COc1ccc(-c2ccc3ncc4c(c3c2)n(-c2ccc(N3CCNCC3)c(C(F)(F)F)c2)c(=O)n4C)cn1`, for which the relative cell viability was determined as 0.0662 ± 0.0018.
As for `CC(C)c1cc(-c2n[nH]c(=O)n2-c2ccc3c(ccn3C)c2)c(O)cc1O` [Ganetespib (STA-9090)], the relative cell viability is 0.59 ± 0.018.
The value for `CC(=O)O[C@]1(C(C)=O)CC[C@H]2[C@@H]3C=C(Cl)C4=CC(=O)[C@@H]5C[C@@H]5[C@]4(C)[C@H]3CC[C@@]21C` [Cyproterone Acetate] was 1.166 ± 0.0044.
The value for `Cc1ncc(CO)c(CO)c1O` [Pyridoxine HCl] was 1.12 ± 0.03; that for `O=C(O)c1ccc(-c2c[nH]c3ncc(-c4ccccc4)cc23)cc1C1CCCC1` was 1.101 ± 0.0019; that for `C[C@H](O)[C@H](O)[C@@H](O)[C@@H](O)C=O` [L-(+)-Rhamnose Monohydrate] was 1.09 ± 0.058.
The compound `Cc1ccc(NCCCc2ccccc2)c(N)c1` gave a relative cell viability of 1.18 ± 0.018.
`C=CC(=O)Nc1cc(Nc2nccc(-c3cn(C)c4ccccc34)n2)c(OC)cc1N(C)CCN(C)C` displayed a relative cell viability of 0.996 ± 0.036.
For `C#Cc1cccc(Nc2ncnc3cc4c(cc23)OCCOCCOCCO4)c1` [Icotinib], the relative cell viability is 1.04 ± 0.039.
The value for `C=CC(=O)Nc1cc(Nc2nccc(-c3c[nH]c4ccccc34)n2)c(OC)cc1N(C)CCN(C)C` was 0.807 ± 0.014.
The value for `CC1=C(/C=C/C(C)=C/C=C/C(C)=C/C(=O)O)C(C)(C)CCC1` [Tretinoin] was 0.915 ± 0.037.
The value for `C[C@]12CC[C@H](O)CC1=CC[C@@H]1[C@@H]2CC[C@]2(C)C(n3cnc4ccccc43)=CC[C@@H]12` [Galeterone] was 1.06 ± 0.14; that for `Nc1nc(NC2CC2)cc(-c2cccc(Cl)c2Cl)n1` was 0.9023 ± 0.0067; that for `CNS(=O)(=O)CCc1ccc2[nH]cc(C3CCN(C)CC3)c2c1` [Naratriptan] was 1.14 ± 0.086.
`CC(=O)Oc1ccccc1C(=O)O` [Aspirin] returned a relative cell viability of 0.99912 ± 0.00059.
On to `N=C(N)NS(=O)(=O)c1ccc(N)cc1` [Sulfaguanidine], for which the relative cell viability stood at 1.16 ± 0.013.
In turn, `COc1ccc2ccc(=O)oc2c1CC=C(C)C` [Osthole] came in with a relative cell viability of 1.11 ± 0.053.
`O=C(Nc1nc2cccc(-c3ccc(CN4CCS(=O)(=O)CC4)cc3)n2n1)C1CC1` [Filgotinib (GLPG0634)]: the relative cell viability was found to be 1.06 ± 0.026.
The value for `CC(=O)[C@H]1CC[C@H]2[C@@H]3CCC4=CC(=O)CC[C@]4(C)[C@H]3CC[C@]12C` [Progesterone] was 1.02 ± 0.0047; that for `Cn1cc(CNCC2CCN(c3ncc(C(=O)NO)cn3)CC2)c2ccccc21` was 0.078 ± 0.0008; that for `CN(C)CC/C=C1/c2ccccc2Sc2ccc(Cl)cc21` [Chlorprothixene] was 0.973 ± 0.067.
Turning to `Cc1cc(=O)oc2c(C=O)c(O)ccc12`, the relative cell viability came to 1.17 ± 0.034.
The value for `CN(C)CCOC(c1ccccc1)c1ccccc1` [Diphenhydramine HCl] was 1.02 ± 0.012; that for `CCOC(=O)CCNc1cc(N2CCc3ccccc3CC2)nc(-c2ccccn2)n1` was 0.957 ± 0.1; that for `COc1ccc2[nH]c([S+]([O-])Cc3ncc(C)c(OC)c3C)nc2n1` (stereo unspecified) [Tenatoprazole] was 1.11 ± 0.014.
Compound `CCC(CC)n1ccc2c(C(=O)NCc3c(C)cc(C)[nH]c3=O)cc(C#N)cc21` came in with a relative cell viability of 1.145 ± 0.0067.
The value for `CCNC(=O)c1[nH]nc(-c2cc(Cl)c(O)cc2O)c1-c1ccc(OC)cc1` was 0.64 ± 0.035; that for `CC(C)c1ccc(NC(=O)Cn2cnc3c2c(=O)n(C)c(=O)n3C)cc1` was 1.163 ± 0.0012.
The value for `C[C@H](NC(=O)/C(C#N)=C/c1cccc(Br)n1)c1ccccc1` was 1.14 ± 0.032; that for `CC(NC(=O)Cc1cc(F)cc(F)c1)C(=O)NC(C(=O)OC(C)(C)C)c1ccccc1` (stereo unspecified) was 1.004 ± 0.0065.
The value for `C[C@]12CC[C@@H]3c4ccc(O)cc4CC[C@H]3[C@@H]1CC[C@@H]2O` [Estradiol] was 1.08 ± 0.016; that for `CCCN(CCC)S(=O)(=O)c1ccc(C(=O)O)cc1` [Probenecid] was 1.14 ± 0.016; that for `CCNC(=O)Nc1ccc(-c2nc3c(c(N4CCOC[C@@H]4C)n2)CCN(C2COC2)C3)cc1` was 0.7075 ± 0.0039.
In the case of `Clc1ccc(CSC(Cn2ccnc2)c2ccc(Cl)cc2Cl)cc1` (stereo unspecified) [Sulconazole Nitrate], the relative cell viability was found to be 0.9596 ± 0.0071.
The value for `O=C(c1ccc(Nc2nccc(-c3cc4ccccc4s3)n2)cc1)N1CCC(N2CCCC2)CC1` [IKK-16 (IKK Inhibitor VII)] was 1.03 ± 0.02.
The value for `Nc1ncnc2c1ncn2[C@@H]1O[C@H](CO)[C@@H](O)[C@H]1O` [Adenosine] was 1.165 ± 0.0028; that for `Cc1cc(C)c(Nc2ccnc(Nc3ccc(C#N)cc3)n2)c(C)c1` [Dapivirine (TMC120)] was 1.14 ± 0.043.
The value for `Cc1cc(/C=C2/SC(=S)NC2=O)c(C)n1-c1cccnc1` [Optovin] was 1.06 ± 0.031.
As for `CN(C)CCN(Cc1ccccc1)c1ccccn1` [Tripelennamine HCl], the relative cell viability stood at 1.08 ± 0.017.
The value for `CC1CNc2c(cccc2S(=O)(=O)N[C@@H](CCCNC(=N)N)C(=O)N2CC[C@@H](C)C[C@@H]2C(=O)O)C1` (stereo partly specified) [Argatroban] was 0.878 ± 0.015.
